# Measured values reported in PubChem BioAssay AID504332 (National Center for Advancing Translational Sciences (NCATS), 2011).
# The whole screen tested about 350,000 compounds, of which about 31,000 (8.9%) were called active. The inconclusive results got no clear call from the source; some entries with a clear call stand among them for comparison. Calls come from the whole dose curve; as a rule, active = well fitted inhibition curve with a large enough effect; inconclusive = small, poorly fitted or top-dose-only effect; inactive = no such curve, though single readings can be large or run the other way. Potencies of inconclusive entries are doubtful fits and often do not repeat.
# Target: Histone-lysine N-methyltransferase EHMT2 (Homo sapiens) (UniProt Q96KQ7)
# Experiment: qHTS Assay for Inhibitors of Histone Lysine Methyltransferase G9a; note: nearly all actives have a fitted effect of over 75% in size
# Settings: G9a H3K9 monomethylation, AlphaScreen, 2 h; activity, negative = inhibition: at 59 µM (top of the series) unless noted
# Summary of the method: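 G9a (20 nM) preincubated 15 min RT with compounds, then 500 nM biotinylated H3K9 peptide and 20 uM SAM added; 2 h RT reaction. Monomethyl-H3K9 product detected by AlphaScreen with anti-H3K9me1 antibody, streptavidin donor and anti-rabbit IgG acceptor beads.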
# % is set by controls: 0 for no effect and ±100 for the full control effect; potency is the fitted concentration of half-maximal effect; tags give direction and shape of the fitted curve.
# Chain of UniProt Q96KQ7 (Q96KQ7 whole entry, looked up): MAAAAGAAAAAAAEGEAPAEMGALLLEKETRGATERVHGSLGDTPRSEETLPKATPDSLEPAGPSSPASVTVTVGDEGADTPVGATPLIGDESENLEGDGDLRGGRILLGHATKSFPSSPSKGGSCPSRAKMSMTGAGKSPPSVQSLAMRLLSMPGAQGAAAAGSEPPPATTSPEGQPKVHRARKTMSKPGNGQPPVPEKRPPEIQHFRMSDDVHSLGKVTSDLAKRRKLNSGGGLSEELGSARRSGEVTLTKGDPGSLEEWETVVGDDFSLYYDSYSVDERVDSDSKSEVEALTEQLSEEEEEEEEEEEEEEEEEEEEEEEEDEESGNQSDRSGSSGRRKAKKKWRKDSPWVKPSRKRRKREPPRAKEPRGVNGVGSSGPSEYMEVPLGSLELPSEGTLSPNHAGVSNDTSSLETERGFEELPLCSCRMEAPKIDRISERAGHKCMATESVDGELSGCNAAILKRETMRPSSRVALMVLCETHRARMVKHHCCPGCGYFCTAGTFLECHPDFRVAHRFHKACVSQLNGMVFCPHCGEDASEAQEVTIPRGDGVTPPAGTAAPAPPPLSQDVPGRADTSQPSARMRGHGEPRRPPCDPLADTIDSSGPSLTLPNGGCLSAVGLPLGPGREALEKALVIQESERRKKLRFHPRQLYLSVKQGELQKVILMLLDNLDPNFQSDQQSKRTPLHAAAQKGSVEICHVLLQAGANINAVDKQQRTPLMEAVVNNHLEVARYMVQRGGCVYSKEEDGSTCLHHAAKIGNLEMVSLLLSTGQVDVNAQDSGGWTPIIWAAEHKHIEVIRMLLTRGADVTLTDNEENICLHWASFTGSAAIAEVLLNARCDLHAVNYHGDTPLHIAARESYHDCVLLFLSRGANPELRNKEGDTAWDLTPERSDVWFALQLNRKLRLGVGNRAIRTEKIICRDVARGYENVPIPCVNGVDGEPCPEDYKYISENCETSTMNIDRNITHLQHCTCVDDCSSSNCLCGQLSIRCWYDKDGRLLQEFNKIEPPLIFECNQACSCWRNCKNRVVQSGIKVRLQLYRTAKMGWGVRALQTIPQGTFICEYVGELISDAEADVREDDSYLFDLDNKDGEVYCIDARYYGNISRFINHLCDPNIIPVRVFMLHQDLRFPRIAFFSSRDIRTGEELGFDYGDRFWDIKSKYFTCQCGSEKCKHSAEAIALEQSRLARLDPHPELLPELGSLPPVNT
SMILES,Potency,"activity, negative = inhibition"
O=C(CN1CCc2ccccc2C1)NCc1ccco1,"inconclusive: 31.6 µM [inhibitor, partial curve]",–
COc1ccc(Cc2nnc(NC(=O)C3CCN(C(=O)c4ccco4)CC3)s2)cc1,active: 79.4 µM,–
CCn1ncc(Br)c1C(=O)Nc1ncc(C)s1,"inconclusive: 50.1 µM [inhibitor, partial curve, poor fit]",–
CC(C)(C)CC(=O)Nc1cc(S(=O)(=O)N2CCOCC2)ccc1N1CCCC1,"inconclusive: 56.2 µM [inhibitor, partial curve, poor fit]",–
COc1ccc(N2CCN(c3cc(C)c4ccc(C)cc4n3)CC2)cc1,active: 8.91 µM,–
Cc1nc(C)n(CC(=O)N2CCCC(C(=O)c3ccc(C(F)(F)F)cc3)C2)n1 (stereo not drawn),–,inactive: 2.17% [at 102 µM]
O=c1[nH]c(CN2CCN(c3ccc([N+](=O)[O-])cc3)CC2)nc2ccsc12,–,inactive: 8.21%
COc1cc(C2C(C#N)=C(N)Oc3cc(N(C)C)ccc32)cc2c1OCO2 (stereo not drawn),"inconclusive: 25.1 µM [inhibitor, single point]",–
O=C(c1cc2nc(-c3ccco3)cc(C(F)(F)F)n2n1)N1CCN(c2ccccn2)CC1,–,inconclusive: -69.8% [inhibitor]
COc1ccc([N+](=O)[O-])cc1NC(=O)Nc1cccc(Cl)c1,"inconclusive: 79.4 µM [inhibitor, single point]",–
Cc1ccc(C)c(NC(=O)c2nc(S(C)(=O)=O)ncc2N(Cc2ccc(C(C)(C)C)cc2)Cc2ccco2)c1,"inconclusive: 15.8 µM [inhibitor, partial curve, poor fit]",–
COC(=O)N1CCN(c2ccc(OC)cc2)CC1,"inconclusive: 8.91 µM [inhibitor, partial curve, poor fit]",–
Cc1cccc(C(=O)Nc2ccc(C(=O)OCc3cc(=O)n4c5c(sc4n3)CCCC5)cc2)c1,–,inactive: 15.5%
CCOc1ccc(C(=O)CSc2nc3cc(C(=O)NC4CCCC4)ccc3c(=O)n2CC2CCCO2)cc1 (stereo not drawn),–,inactive: -1.34%
COc1ccc(Cl)cc1NC(=O)CN(C)C(C)C(=O)NCC1CCCCC1 (stereo not drawn),"inconclusive: 89.1 µM [inhibitor, partial curve, poor fit]",–
CCC(C)n1ncn(-c2ccc(N3CCN(c4ccc(OC)cc4)CC3)cc2)c1=O (stereo not drawn),"inconclusive: 3.55 µM [inhibitor, partial curve, poor fit]",–
COC(=O)c1cc(=O)n2c(sc3ccccc32)c1C#N,"inconclusive: 50.1 µM [inhibitor, partial curve, poor fit]",–
NC(=O)c1cc2ccncc2c2ccccc12,–,inactive: 16.1% [at 0.501 µM]
COc1ccc2nc(NC(=O)C3CC(=O)N(c4ccc5c(c4)OCCO5)C3)sc2c1 (stereo not drawn),active: 39.8 µM,–
CCOc1ccc(C(=O)c2cn(CC(=O)Nc3ccc4c(c3)OCCO4)c3ccc(OC)cc3c2=O)cc1,"inconclusive: 8.91 µM [inhibitor, partial curve, poor fit]",–
COc1ccc(N2CCN(c3n[nH]c(N)n3)CC2)cc1,–,inactive: -16.2%
Cc1c(OCC(F)(F)F)ccnc1CSc1nc2ccccc2[nH]1,–,inconclusive: -78.2% [inhibitor]

SMILES,Potency,"activity, negative = inhibition"
Cc1ccccc1C(=O)OCc1cc(=O)n2nc(C3CC3)sc2n1,–,inactive: 3.81%
CSc1ccc(NC(=O)N2CC=C(n3c(=O)[nH]c4ccccc43)CC2)cc1,"inconclusive: 79.4 µM [inhibitor, single point]",–
Cc1ccn2c(-c3n[nH]c(=S)n3Cc3ccccc3)c(C)nc2c1,active: 7.08 µM,–
CCOC(=O)N1CCC(NC(=O)c2ccc3c(c2)N(Cc2cc(C)ccc2C)C(=O)c2ccccc2S3(=O)=O)CC1,–,inactive: -5.08%
CCOC(=O)c1ccc(-n2c(CN(CC)CC)nc3ccc([N+](=O)[O-])cc3c2=O)cc1,active: 10 µM,–
CCCCCn1c(=O)[nH]c2cc(C(=O)N3CCN(c4cc(Cl)ccc4C)CC3)ccc2c1=O,–,inactive: 6.85%
CCCCn1c(N)c(N(CC)C(=O)c2ccncc2)c(=O)[nH]c1=O,"inconclusive: 39.8 µM [inhibitor, single point]",–
Cc1ccc(C)c(NC(=S)N(CCc2ccncc2)C(C)C)c1,"inconclusive: 20 µM [inhibitor, partial curve, poor fit]",–
CCn1c(SCC(=O)N2CCN(c3ccc(Cl)cc3)CC2)nc2ccccc2c1=O,active: 2 µM,–
COc1ccc(-c2nc3c4ccccc4ccn3c2CN2CCCCC2)cc1,active: 39.8 µM,–
Cc1cc(C(=O)Nc2ccc(C)c(S(=O)(=O)N3CCOCC3)c2)c(C)o1,"inconclusive: 89.1 µM [inhibitor, partial curve, poor fit]",–
O=C(NCc1ccccc1)c1cc[n+](CC(=O)c2cccs2)cc1,"inconclusive: 79.4 µM [inhibitor, single point]",–
CCOC(=O)c1ccc(Nc2nc3nonc3nc2Nc2cccc(C)c2C)cc1,–,inactive: -50.1%
O=C(C1=C(O)C(=O)N(CCN2CCOCC2)C1c1ccc(Br)cc1)c1cc2ccccc2o1 (stereo not drawn),"inconclusive: 31.6 µM [inhibitor, full curve, poor fit]",–
O=C(N/N=C/c1cccc(Cl)c1)C1CCCC1,"inconclusive: 35.5 µM [inhibitor, partial curve, poor fit]",–
Cc1c(NC(=O)c2cccc(NC(=O)COc3ccccc3C#N)c2)c(=O)n(-c2ccccc2)n1C,"inconclusive: 79.4 µM [inhibitor, partial curve, poor fit]",–
Cc1ccc(C(=O)Nc2ccc3oc(-c4cccnc4)nc3c2)c(Cl)c1,"inconclusive: 3.55 µM [inhibitor, single point]",–
CN(C)c1ccc(C(O)Cc2nc3ccccc3n2C)cc1 (stereo not drawn),"inconclusive: 89.1 µM [inhibitor, single point]",–
COc1cc(/C=C/C(=O)OCC(=O)Nc2ccc3c(c2)OCCO3)ccc1O,"inconclusive: 89.1 µM [inhibitor, single point]",–
CC(=O)NC1C(=O)N(CC(C)C)c2ccccc21 (stereo not drawn),"inconclusive: 89.1 µM [inhibitor, single point]",–
Oc1ccccc1N=Nc1nc(-c2ccccc2)c(-c2ccccc2)[nH]1,"inconclusive: 17.8 µM [inhibitor, partial curve, poor fit]",–
